Reference: the RNAGym collection of RNA variant scans (doi:10.1093/nar/gkz1192)
Read counts are not given, so values of variants with three or more changes are uncertain.

B1: CPEB3 Ribozyme (parent)
chain: UAACAGGGGGCCACAGCAGAAGCGUUCACGUCGCAGCCCCUGUCAGAUUCUGGUGAAUCUGCGAAUUCUGCUGUAUAUCUC

Variants of: B1
Assay: self-cleavage, relative activity (ratio to wild type); higher = more cleavage; in vitro, sequencing
In short: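 After error-prone PCR and barcoding, CPEB3 ribozyme mutant libraries were transcribed with T7 RNA polymerase at 37°C for 5 hours, then given 15 min with DNase I before an EDTA stop, and they cleaved during both steps. Reverse transcription with template switching preceded Illumina sequencing. Relative activity divides a variant's cleaved/total read fraction by the unmutated ribozyme's. At least 5 reads were required per variant, and three batches were averaged.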

Variant | self-cleavage
UAACAGAGGGCCACUGCAGAAGCGUUCACGUCGCAGCCCCUGUCAGAUUCUGGUGAAUCUGCGAAUUCUGCCGUAUAUCAC | 0.06
UAACAGAGGGCCACAGCCGAAGCGUUCACGUCGCAGCCCCUGUCAGUUCCUGGUGAAUCCGCGAAUUCUGCUGUAUAUCUC | 0.05
UAACAGAGGGCCACAGCGGAAGCGUUCACGUCGCAGCCCCUGUCAGAUUCUGGUGAAUCUGCGAGUUCUGCUGUAUGUCUC | 0.09
UAACAGAGGGCCACAGCGGAAGCGUUCACGUCUCAGCCCUUGUCAGAUUCUGGCGAAUCUGCGAAUUCUGCUGUAUAUCUC | 0.24
UAACAGAGGGCCACAGCGGAAGCGUUCACGUCGCAGCCCCAGUCAGAUUCUGGCGAAUCUGCGAACUCUGCUGUAUAUCUC | 0.04
UAACAGAGGGCCACAGCGGAAGCGUUCACGUCGCAGCCCCUGUCAGAUUCUGGUGAAUCUGCGAAUUCUGCUGUAUAUCAC | 0.4
UAACAGAGGGCCACAGCUGAAGCGUUCACGUCGCAGCACCUGUCAGAUUCUGGUGGAUCUGCGAAUUCUGCUGUAUAUCUC | 0.04
UAACAGAGGGCCACAGCUGAAGCUUUCACGUCGCAGCCCCUGUCGGAUUCUGGUGGAUCUGCGAGUUCUGCUGUAUAUCUC | 0.04
UAACAGAGGGCCACAGCAGGAGCGUUCACGUCGCGGCCCCUGUCAGAUUCUGGUGAAUCUGCGAAUUCUGCUGUAUGUCUC | 0.15
UAACAGAGGGCCACAGCAGGAGCGUUCACGUGGCAGCCCCUGCCAGAUUCUGGUGAGUCUACGAAUUCUGUUGUAUAUCUC | 0.03
UAACAGAGGGCCACAGCAGGAGCGACCACGUCGCAGCCCCUGUCAGAUUCUGGUGAAUCUGCGAAUCCUGCUGUAUAUCUC | 0.05
UAACAGAGGGCCACAGCAGGAGCGCUCACGUGGCAGCCCCUGUCGGAUUCUGGUGAAUCUGCGCAUUCUGCUGUAUACCUC | 0.05
UAACAGAGGGCCACAGCAGGAGCGUUCACGACGCAGCCCCUGUCGGAUUCUGGCGAAUCUGCGAACUCUGCUGUAUAUCUC | 0.07
UAACAGAGGGCCACAGCAGGAGCGUUCACGCCGCGGCCCCUGUCAGAUUCUGGUGGAUCUGCGAAUUCUGCCGUAUAUCUC | 0.15
UAACAGAGGGCCACAGCAGGAGCGUUCACGUCGCAGCCCCUGUCAGAUUCUGGUGAAUCUGCGAAUUCUGCUGUAAGUCUC | 0.11
UAACAGAGGGCCACAGCAGUAGCGUUCACGUCGCAGCCCCUGUCAGAUUCUGGUGAAUCUGCGAGUUCCGCUGUAUAUCUC | 0.23
UAACAGAGGGCCACAGCAGUAGCGUUCACGUCGCAGCCCCUGUCAGAUUCUGGUGAAUCUGCGAAUUCUCCUGUAUAUCUC | 0.06
UAACAGAGGGCCACAGCAGUAGCGUUCACGCCGCAGCCCCAGUCAGAUUCUGGUGAAUCUGCGAAUUCCGCCGUAUAUCUC | 0.04
UAACAGAGGGCCACAGCAGACGCGUCCACGUCGCAGCCCCUGUCAGAUUCUGGUGAAUCUGCGAACUCUGCUGUAUAUCUC | 0.11
UAACAGAGGGCCACAGCAGAGGCGUUCGCGUCGCAGCCCCUGUCAGAUUCUGGUGAAUCUGCGAAUUCUGCUGUAUAUCUC | 0.11
UAACAGAGGGCCACAGCAGAGGCGUUCACGUCGCGGCCCCCGUCAGAUUAUGGUGAAUCUGCGAAUUCUGCUGUAUAUCUC | 0.07
UAACAGAGGGCCACAGCAGAGGCGUUCACGUCGCAGCCCCUGUCAGGUUCUGGUGAAUCUGCGAAUUCUGCUGGAUAUCUC | 0.04
UAACAGAGGGCCACAGCAGAGGCGUUCACGUCGCAGCCACUGUCAGAUUCUGGUGAAUCUGCGAAUUCUGCUGUAUAUCUC | 0.38

Variant | self-cleavage
UAACAGAGGGCCACAGCAGAGGCGUUCACGUCGCAGCCCCUGCCAGAUUCUGGUGAAUCAGCGAAUUCUGCUGUAUAUCUC | 0.18
UAACAGAGGGCCACAGCAGAGGCGUUCACGUCGCAGCCCCUGCCAGAUUCUGGUGAAUCUGCGAAUUCUGCUGUAUAUCCC | 0.18
UAACAGAGGGCCACAGCAGAAGCGUUCGCGUCGCGGCCCCUGUCAGAUUCUGGUGAAUCUGCGAAUUCUGCUGUAUAUCUC | 0.14
UAACAGAGGGCCACAGCAGAAGCGUUCGCGUCGCAGCCCCUGUCGGGUUCUGGUGAAUCUGCGAAUUCUGCUGUAUAUCUC | 0.12
UAACAGAGGGCCACAGCAGAAGCGUUCGCGACGCAGCCCCAGUCAGAUUCUGGUGAGUCUGCGGAUUCUGCUGUAUAUCUC | 0.05
UAACAGAGGGCCACAGCAGAAGCGUUCGCGUCGCAGCCCCAGUCAGAUUCUGGCGAAUCUGCGAAUUCUGCAGUAUAUCUC | 0.06
UAACAGAGGGCCACAGCAGAAGCGUUCGCGUCGCAGCCCCCGUCAGAUUCUGGUGGAUCUGCGAGUUCCGCUGUAUAUCUC | 0.03
UAACAGAGGGCCACAGCAGAAGCGUUCGCGUCGCAGCCCCUGUCAGAUUCUGGUGAAUCUGCGAAUUCUGCUGUAUAUCCC | 0.4
UAACAGAGGGCCACAGCAGAAGCGUUCUCGUCGCAGCCCCCGUCAGAUCCUGGUGGAUCUGCGAAUUCUGCUGUAUAUCUC | 0.06
UAACAGAGGGCCACAGCAGAAGCGUUCUCGUCGCAGCCCCGGUCAGAUUCUGGUGAAUCUGCGUAUUCUGCUGUAUAUCUC | 0.06
UAACAGAGGGCCACAGCAGAAGCGUUCUCGUCGCAGCCCCUGUCAGAUUCUGGAGAAUCUGCGAAUUCUGCCGUAUAUCUC | 0.18
UAACAGAGGGCCACAGCAGAAGCGUUCACGUCGCGGCCCCUGUCAGAUUCUGGUGAAUCUGCGAUAUCUGCUGUAUAUCUC | 0.23
UAACAGAGGGCCACAGCAGAAGCGUUCACGUCGCGGCCCCAGUCAGAUUCUGGAGAAUCUGCGAAUUCUGCUGUACGUCUC | 0.12
UAACAGAGGGCCACAGCAGAAGCGUUCACGUCGCGGCCCCUGUCAGAUCCUGGGGAAUCUGCGAAUUCUGCUGUAUAUCUC | 0.1
UAACAGAGGGCCACAGCAGAAGCGUUCACGUCGCUGCCCCUGUCAGAUUCUGGUGAGUCUGCGAAUUCUGCUGUAUAUCUC | 0.21
UAACAGAGGGCCACAGCAGAAGCGUUCACGUCGCUGCCCCUGUCAGAUUCUGGUGAGUCUGCGAAUUCUUCUGUAUAUCUC | 0.06
UAACAGAGGGCCACAGCAGAAGCGUUCACGUCGCUGCCCCAGUCAGAUUCUGGUGGAUCUGCGAAUUCUGCUGUAUAUCUC | 0.06
UAACAGAGGGCCACAGCAGAAGCGUUCACGUCGCUGCCCCUGUCAGAUUCUGGUGAAUCCGCGAAUUCUGCUGUAUAUCUC | 0.05
UAACAGAGGGCCACAGCAGAAGCGUUCACGUCGCUGCCCCUGUCAGAUUCUGGUGAAUCUGCGAAUUCUGCUGUAUACCCC | 0.05
UAACAGAGGGCCACAGCAGAAGCGUUCACGUCGCAGCCCCUGUCGGUUUCUGGUGAAUCCGCGAAUUCUGCUGUAUAUCUC | 0.06
UAACAGAGGGCCACAGCAGAAGCGUUCACGUCGCAGCCCCUGUCGGAUUCUGGUGGAUCUGCGAAUUCUGCUGUAUAUCUC | 0.21
UAACAGAGGGCCACAGCAGAAGCGUUCACGUCGCAGCCCCUGUCUGAUUCUGGUGGAUCUGCGAAUUCUGCUGUAUAUCUC | 0.01
UAACAGAGGGCCACAGCAGAAGCGUUCACGUCGCAGCCCCUGUCUGAUUCUGGUGAUUCUGCGAAUUCUGCUGUAUAUCUC | 0.19

Variant | self-cleavage
UAACAGAGGGCCACAGCAGAAGCGUUCACGUCGCAGCCCCUGUCAGGUUCUGGUGAAUCUGCGGAUUCUGCUGUAUAUCUC | 0.06
UAACAGAGGGCCACAGCAGAAGCGUUCACGUCGCAGCCCCUGUCAGGUUCUGGUGAAUAUGCGAAUUCUGCUGAAUAUCUC | 0.05
UAACAGAGGGCCACAGCAGAAGCGUUCACGUCGCAGCCCCUGUCAGGUUCUGUUGAAUCUGCGAAUUCUGCUGUAUAUCUC | 0.08
UAACAGAGGGCCACAGCAGAAGCGUUCACGUCGCAGCCCCUGUCAGAUUCUGGUGUAUCUGCGAAUUCUGCUGCAUAUCUC | 0.35
UAACAGAGGGCCACAGCAGAAGCGUUCACGUCGCAGCCCCUGUCAGAUUCUGGUGAGUCUGCGAACUCUGCUGUAUAUCUC | 0.41
UAACAGAGGGCCACAGCAGAAGCGUUCACGUCGCAGCCCCUGUCAGAUUCUGGUGAGUCUGCGAAUUCUGCUGCAUAUCUC | 0.37
UAACAGAGGGCCACAGCAGAAGCGUUCACGUCGCAGCCCCUGUCAGAUUCUGGUGAAUCUGCGGAUUCUGCUGUAUGUCUC | 0.08
UAACAGAGGGCCACAGCAGAAGCGUUCACGUCGCAGCCCCUGUCAGAUUCUGGUGAAUCUGCGAAUUCUGCUGUUUAACUC | 0.08
UAACAGAGGGGCACAGCGGAAGCGUUCACGACGCAGCCCCUGUCAGAUUCUGGUGAAUCUGCGAAUUCUGCUGUAUAUCUC | 0.05
UAACAGAGGGGCACAGCAGAAGCGUUCACGUCGCAGCCCCUGUCAGAUUCUGGUGAAUCUACGAAUCCUGCAGUAUAUCUC | 0.05
UAACAGAGGGGCACAGCAGAAGCGAUCACGACGCAGCCCCUGUCAGAUUCUGGUGAAUCUGCGAAUUCUGCUGUAUAUCUC | 0.05
UAACAGAGGGGCACAGCAGAAGCGUCCGCGUCACUGCUCCUGUCAGAUUCUGGUGAAUCUGCGAAUUCUGCUGUAUAUCUC | 0.03
UAACAGAGGGUCACAGCAGAAGCGUUCACGUCGCAGCCCCUGUCAGAUUCUGGGGAAUCUGCGAAUUCUGCCGUAUAUCUC | 0.07
UAACAGAGGGCAACUGCAGAAGCGUUCACGUCGCAGCCCCUGUCAGAUUCGGGUGAAUCUGCGAAUUCUGCUGUAUAUCUC | 0.08
UAACAGAGGGCAACAGCAGGAGCGUUCUCGUCGCGGCCCCUGUCAGAUUCUGGUGAAUCUGCGAAUUCUGCUGUAUAUCAC | 0.04
UAACAGAGGGCUACAGCAGAAGCGAUCACGUCGCAGCCCCUGUCAGAUUCUGGCGAAUCUGCGAAUUCUGCUGUAUAUCUC | 0.05
UAACAGAGGGCCAAAGCAGAAGCGUUCACGGCGCAGCCCCUGCCAGAUUCUGGUGAAUCUGCGGAUUCUGCUGUAUACCUC | 0.06
UAACAGAGGGCCACAGCAGAAGAGUUCACGUCGCAGCCCCUGUCUGAUUCUGGUGAAUCUGCGAAUUCUGCCGUAUAUCUC | 0.05
UAACAGAGGGCCACAGCAGAAGAGUGCACGUCGCAGCCCCUGUCAGAAUCAGGUGAAUCUGCGAAUACUACUGUAUAUCUC | 0.13
UAACAGAGGGCCACAGCAGAAGGGUUCACGUCGCAGCCCCUGUCAGAUUCUGGUGAAUCCGCGAGUUCUGCUGAAUAUCUC | 0.04
UAACAGAGGGCCACAGCAGAAGGGUUCACGUCGCAGCCCCUGUCAGAUUCUGGUGAAUCUGCGAAUUCUGCUGAAUAUCUC | 0.34
UAACAGAGGGCCACAGCAGAAGUGUACACGUCGUAGCCCCAGUCAGAUACUGGUGAAUCUGCGAAUUCUGCUGUAUAUCUC | 0.04
